These results are taken from ChEMBL document CHEMBL4888484, “Replenishing the malaria drug discovery pipeline: Screening and hit evaluation of the MMV Hit Generation Library 1 (HGL1) against asexual blood stage Plasmodium falciparum ,using a nano luciferase reporter read-out” (2022).

Several values for one entry are separate records, joined by “and”; a condition that tells them apart may be missing. Equal values may be shown once. Among all 150,000 compounds or so, about 540 (0.36%) showed an effect of 50% or more. Some of the results follow.

The test system of the assay is Plasmodium falciparum. The assay is described as follows: Primary screen in NF54 nanoGlo assay, in single point, at 2uM, 72h; a lower Z score goes with more inhibition. It is filed as functional, Erythrocyte. The settings on record: timepoint 72 hour.

As a reminder, the % Inhibition is the relative decrease from the control value, in per cent. As to `O=S(=O)(Cc1csc(-c2ccco2)n1)CC1CCOCC1`, the “% Inhibition” value is recorded as -12% and the Z score is listed as 1.57.
The corresponding values for `Cn1cc([C@H]2CN(C(=O)CCc3ccccn3)C[C@H]2CC(=O)O)nn1` are 0% and -0.06.
The corresponding values for `CN(CCCc1cccnc1)CC[C@H]1CCCCO1` are -21% and 2.05.
The corresponding values for `CC1CCN(C(=O)OC(C)(C)C)C(C)C1NC(=O)CN1CCCS1(=O)=O` (centres undefined) are -2% and 0.22.
As for `C[C@H]1COc2ccc(C(=O)N3CCOC4(CCC4)C3)cc21`, the “% Inhibition” value is listed as -9% and the Z score came out at 1.46.
The like results for `CCCN(CC(=O)N1CCn2cccc2[C@H]1c1cccc(F)c1)C(=O)Nc1cccc(C)c1` were, in that order, -1% and 0.11.
Take `CCCc1cc(N2CCN(c3ncccc3C)CC2)n2nccc2n1`: the “% Inhibition” value was -15% and the Z score came out at 2.02.
The corresponding values for `C[C@@H](Cc1ccsc1)NC(=O)N(C)CC1CCC1` are -4% and 0.49.
The like results for `CCN(CC)CCN(CC(C)C)C(=O)c1ccccn1` were, in that order, -11% and 1.38.
The like results for `CCc1cccc(S(=O)(=O)Nc2nonc2C)c1` were, in that order, -9% and 1.05.
For `Cc1cccc(N2CCN(S(=O)(=O)c3ccc(-c4nnc(C)o4)o3)CC2)c1`, the “% Inhibition” value was found to be 2% and the Z score was -0.32.
`CS(=O)(=O)N1CCOC[C@H](Oc2ccccc2)C1`: the “% Inhibition” value is listed as 1% and the Z score was -0.17.
The like results for `C[C@H](NS(=O)(=O)c1ccc2c(c1)NC(=O)CO2)c1cccnc1` were, in that order, 4% and -0.73.
The like results for `CCOc1cc(C(C2C(=O)N(CC)c3ccccc32)C2C(=O)N(CC)c3ccccc32)cc(Br)c1OCC` (centres undefined) were, in that order, 1% and -0.1.
Take `CCc1cc2c(NC3CCCC3)ncnc2s1`: the “% Inhibition” value is reported as -16% and the Z score is reported as 1.49.
As for `CS(=O)(=O)CC(=O)N[C@H]1CC[C@@H](C(=O)N2CCCCC2)C1`, the “% Inhibition” value amounted to 4% and the Z score is reported as -0.6.
The like results for `CCc1nc[nH]c1C(=O)N[C@H]1C[C@H](c2ccc(F)cc2F)C1` were, in that order, -15% and 2.38.
The like results for `CO[C@H]1CCCN(Cc2cnoc2C)C1` were, in that order, 6% and -0.71.
The corresponding values for `O=C(NC1CC1C1CCCCC1)N1CCC[C@@H]1CO` (some centres undefined) are -5% and 0.8.
As to `COc1cc2c(cc1OC)CN(C(=O)c1cc(=O)c(OCc3ccc(Cl)cc3)c[nH]1)CC2`, for the setting “2 µM”, the “% Inhibition” value is 4% and 10%; the Z score is -0.8 and -1.11.
As for `COc1ccc([C@@H](O)Cn2cnc(C(=O)N3CCN(c4ccccn4)CC3)n2)cc1`, the “% Inhibition” value is -1% and the Z score is 0.11.
The corresponding values for `C=C[C@H]1OCC[C@@H]1NC(=O)c1cnn(CCC)c1` are 2% and -0.35.
The corresponding values for `COc1ccc(-c2cc(CN(Cc3ccco3)C(=O)NCc3ccccc3)no2)cc1` are -12% and 1.83.
The corresponding values for `CCCc1cc(CNS(=O)(=O)c2cc(-c3cnc(C)o3)ccc2C)on1` are -1% and 0.11.
Turning to `CC(C)[C@H](Oc1cccc(Cl)c1)C(=O)NCc1nccc(N)n1`, the “% Inhibition” value is -8% and the Z score was found to be 0.9.
The like results for `Cc1ccccc1CNS(=O)(=O)c1cc(C(=O)N2CCCCCC2)cs1` were, in that order, 3% and -0.31.
`CCN(Cc1ccoc1)C(=O)NCC1(N(C)C)CCCC1`: the “% Inhibition” value worked out at 2% and the Z score is -0.16.
The corresponding values for `Cc1ccc(NC(=O)c2c(NC(=O)c3cccc4ccccc34)sc(C)c2C)cc1` are -17% and 2.18.
The corresponding values for `Cc1ccc([C@H]2CN(C(=O)c3ccc4cc[nH]c4c3)C[C@@H]2N(C)C)cc1` are -9% and 0.92.
On to `CCNC(=O)c1coc(CN(Cc2cccc(F)c2)Cc2ccc3c(c2)OCO3)n1`, for which the “% Inhibition” value turned out to be 1% and the Z score is -0.11.
The like results for `CNC(=O)c1nnsc1OC(C)(C)CC(C)=O` were, in that order, -13% and 1.58.
Consider `NC(=O)c1ncn(-c2ccncc2)c1N`, for which the “% Inhibition” value is given as 27% and the Z score is recorded as -3.
The like results for `CC1CC(CN2CCC(NS(=O)(=O)c3cccs3)CC2)CCO1` (centres undefined) were, in that order, -5% and 0.51.
The like results for `COc1ccc(NCc2c(C)nn(C)c2Oc2cccnc2)c(C)n1` were, in that order, -14% and 2.17.
The corresponding values for `Cc1ncsc1-c1cc(-c2ccnn2-c2ccccc2)c(C#N)c(N)n1` are 0% and 0.03.
Regarding `CCc1cc(N2CCC[C@@]3(CCC(=O)N(CCc4c[nH]cn4)C3)C2)nc(C)n1`, the “% Inhibition” value is on record as -3% and the Z score came out at 0.47.
The like results for `O=C(NCc1ccco1)c1cnc(-c2ccccc2)nc1N1CCC(Cc2ccccc2)CC1` were, in that order, -20% and 3.5.
The like results for `Cn1ccnc(N2CC[C@H](c3cccc(Oc4ccccc4)c3)C2)c1=O` were, in that order, -3% and 0.42.
The corresponding values for `Fc1ccc([C@@H]2CN(c3ncc(C(F)(F)F)cc3Cl)CCO2)cc1` are -14% and 1.78.
For `CC[C@H](C)NS(=O)(=O)c1c(C)c(C)cc2c(C)c(C(=O)N3CCCC3)oc12`, the “% Inhibition” value is listed as -6% and the Z score was found to be 0.73.
The corresponding values for `C[C@@H](O)[C@@H]1NC(=O)[C@H]2CN(S(=O)(=O)c3ccc4ccccc4c3)CCN2C1=O` are -19% and 2.26.
Take `O=C1CN(C(=O)CCCc2ncc(-c3ccccc3)o2)CCN1`: the “% Inhibition” value was -13% and the Z score worked out at 2.52.
